Measurements: patent US12551573B2, “Compositions and methods for the targeting of PCSK9” (Scribe Therapeutics Inc., priority 2022, dated 2026)
Where two headings read alike, the source gives them in different places.

Test system: HBEGF locus
Type: cell-based, human
Details: high-throughput screen of dXR repression of the HBEGF gene
[1] = abundance of each domain in the library before vs after diphtheria toxin selection, listed domains met p-value <0.01 and log2(fold change) >2
[2] = abundance of each domain in the library before and after diphtheria toxin selection, HEK293T cells
[3] = change in abundance of each domain in the library before and after diphtheria toxin selection

| Molecule | Log2 (fold change) [1] | further results |
| --- | --- | --- |
| DOMAIN_19889 (protein, Vicugna pacos) SKAPVTFGDLAIYFSQEEWEWLSPIQKDLYEDVMLENYQNLVSLGLSFRRPNVIALLEKGKAPWMVEPVKRRRGLDSGSKC | 3.1963 | – |
| DOMAIN_19805 (protein, listed as Rhinolophus ferrumequinum) SQGLVTFRDVALDFSQEEWEWLDPSQKDLYRDVMLENYRNLVCLGLSISKPNMISLLEQGKEPWMVQREMSDDPYTDWESW | 2.6527 | – |
| DOMAIN_19713 (protein, Pan troglodytes) EPGAVSFADVAVYFSPEEWECLRPAQRALYRDVMRETYGHLGALGFPGPKPALISWMEQESEAWSPAAQDPEKGERLGGAR | 3.845 | – |
| DOMAIN_20023 (protein, listed as Physeter macrocephalus) KSAAVSFSDVAVYFSLEEWGCLRPAQRALYRDVMRETYGHLGALGFPGPKPALISWMEQESEAWSPAAQDPEEGESLGGAL | 3.6893 | – |
| DOMAIN_19721 (protein, listed as Otolemur garnettii) FQGPVTFRDVAIDFSQEEWKWLQPAQRDLYRCVMLENYGHLVSLGLSISKPDVVSLLEQGKEPWLEQGDVRRNLFSVSQSN | 2.6913 | – |
| DOMAIN_20012 (protein, listed as Leptonychotes weddellii) AQESVVFSDVSIDFSQEEWECLNDDQRDLYRDVMLENYSHLVSMAGHSVSKPDVISVLEQGKEPWLVDRELTREQWPVLES | 3.8253 | – |
| DOMAIN_19708 (protein, source 1..81: note = Bos indicus x Bos taurus) TQVSVTFDDVAVTFTQEEWGHLDPAQRTLYREVMLETCRLLVSLGCPVPRPELIYRLEHGQELWTVKRDLSRSTCAVDEGK | 3.6339 | – |
| DOMAIN_19585 (protein, listed as Monodelphis domestica) AWEVVTFQDVAVDFTREEWRLLSPPQKELYKEVMLENVRNLLSVGLPAPPDDVVSYLEQREGPSMLDQEDLRTCGPEGEIR | 3.0031 | – |
| DOMAIN_19777 (protein, listed as Pongo sp.) RRESVTFEDVAVYFSENEWIGLGPAQRALYRDVMLENYGAVASLAFPFPKPALISQLERGETPWCSVPQGALDGEAPRGIS | 3.2427 | – |
| DOMAIN_19600 (protein, listed as Monodelphis domestica) SQVSLTFRDVAVDFSQEEWGLLEPAQKDMYRDVMLENYENFLSLGLPISKPNMISQLKRREAPSWIAEGKVSLSTYLGTLR | 2.5854 | – |
| DOMAIN_19596 (protein, listed as Monodelphis domestica) QLGSVAFEDVAVDFTQEEWGYLAPAQRDLHREVMLENYRNLVFLGLVASKPDVICHLEQRKEPWSLRGIEKRKALRGTCPD | 3.8583 | – |
| DOMAIN_19993 (protein, listed as Tursiops truncatus) FQVLVSFEEVAVLLSQEEWGHLGPAQKRLYRDVMLETYGNLVSLGLQGSKPDVISKLEQGEEPWTPHSPRIEGSWIRRRRP | 3.4227 | – |
| DOMAIN_19990 (protein, listed as Panthera pardus) PQEPVTFEDVAVYFTQNQWASLDPMQRALYREVMLENYTNMASLAFPFPKPVLVSHLERGEAPWGPDPWEAEVLRGICPGG | 3.5329 | – |
| DOMAIN_19533 (protein, listed as Papio anubis) FQGSVTFRDVAIDFSQEEWKWLQPAQRDLYRCVMLENYGHLVSLGLSISKPDVVSLLEQGKEPWLGKRNVNRDLQALCIPI | 2.5831 | – |
| DOMAIN_19487 (protein, listed as Monodelphis domestica) PQELVTFRDVAVDFTPEEWGQLGPAQKELYQEVMLENYRNLVCLGLTVSKPDVISQLEQGEAPWRLEGGSARGRCLDWGMR | – | Log2 (fold change) [2]: 3.4312 |
| DOMAIN_19517 (protein, listed as Monodelphis domestica) PQELVTFEDVAVYLTKEEWEHLGPAQRRLYRDVMLENYENVVSLGFPVSKPDLISQLEQGEVPCLPDLPRTEVPEIHGGPL | 3.3361 | – |
| DOMAIN_235 (protein, listed as Pan paniscus) MDSVAFEDVAVNFTHEEWALLSPSQKNLYRDVMRETIRNLNCIGMKWENQNIDDQYQNLRRNPRCDVVERFGKSKDGSQCG | – | Log2 (fold change) [3]: 2.9615 |
| DOMAIN_19883 (protein, listed as Zalophus californianus) PQESVTFKDIAVDFTQEEWALLDTSQRKLYRDVMLENISHLVSVGYHLCKSDVVSQLEQGVELWREGRGFPQGPNPDRKSG | 3.5504 | – |
| DOMAIN_19776 (protein, listed as Enhydra lutris) LQEPVTFADVAVLFTPEEWMFLDSAQRSLYRDVMLENYRNLASVGDQLGKPSMLSLSEPGEELWAPERRTFPGTRPEPQHQ | 2.617 | – |

| Molecule | Log2 (fold change) [1] | further results |
| --- | --- | --- |
| DOMAIN_19788 (protein, listed as Enhydra lutris) RPRAVKFADVAVYFSPEEWGCLRPAQRALYRDVMRETYGHLSALGCSGPKPALISWLERNTDDWEPAALDPQECPRGLTVQ | 3.3393 | – |
| DOMAIN_19497 (protein, listed as Monodelphis domestica) CQETLTFKDVAVDFTREEWGQLGPAQRDLYKEVMLDNYRNLISLGLQGSKPDVIFWLERGQSPWTLKRRKSRDCCPEFHLH | – | Log2 (fold change) [2]: 3.466 |
| DOMAIN_19886 (protein, listed as Panthera pardus) AQGSVVFSDVSVDFSQEEWECLDSGQRDLYRDVMLENYSNLLSMGFYIPKPPVISLLEQGKEPWMVGRELTKGLCSDLESM | 2.8642 | – |
| DOMAIN_19611 (protein, Lipotes vexillifer) SLGSDLFRDVAVVFSQEEWEQLAPAQRDLYRDVMLEIYSNLVSLGFAISKPDVISFLEQGREPWMVEKVVTGGQCPVLESR | 3.3901 | – |
| DOMAIN_19629 (protein, listed as Monodelphis domestica) SEETVTFKDVAVDFTWEEWKQLTPVQRDLYRDVMLENYQNLVSLGLPVFQSDLISQLERGEVPWIPEGETFRGPCPGSINQ | 3.0535 | – |
| DOMAIN_225 (protein, listed as Pan paniscus) MDSVAFEDVAVNFTQEEWSLLDPSQKNLYREVMQETLRNLASIGEKWKDQYIEDQYKNPRNNLRSLLGERVDENTEENHCG | – | Log2 (fold change) [3]: 2.259 |
| DOMAIN_19800 (protein, listed as Zalophus californianus) SLESDLFRDVAIVFSQEEWEQLAPAQRDLYRDVMLETYSNLVSLGLAIAKPDVISFLEQGKEPWVVEKMSRGGLCPVLESR | 2.368 | – |
| DOMAIN_214 (protein, listed as Pan paniscus) CSHRSCREDPGTSESREMDPVAFDDVAVNFTQEEWALLDISQRKLYREVMLETFRNLTSIGKKWKDQNIEYEYQNPRRNFR | – | Log2 (fold change) [3]: 2.1073 |
| DOMAIN_19891 (protein, listed as Zalophus californianus) ARASLSFEDVAVGFSWEEWQLLAPSQKDLYRDVMLENYRNLVSVGYQASKPDSVFQLEQGEPPWMVEGAAQSQTCQGYPAT | 3.2135 | – |
| DOMAIN_19780 (protein, listed as Pongo sp.) MVTFEDVAVHFTKTEWTGLSPAQRALYRSVMLENFGNLTALGYPVPKPALISLLEGGDMAWGLEAQDDPLAETTKNVCKDV | 3.0867 | – |
| DOMAIN_19947 (protein, listed as Pan paniscus) MLMMFRDVAVDFSQEEWECLDLEQRGLYRDVMLENYSNMVSLGLCIYQPEAFSLLEKGKEPWKILRDETRGPCPDMQSRCQ | 2.2608 | – |
| DOMAIN_226 (protein, listed as Pan paniscus) MDSVAFEDVAVSFTQEEWALLDPSQKNLYRDVMQETFKNLTSVGKTWKVQNIEDEYKNPRRNLRRSFTLVAQAGVRQDLGS | – | Log2 (fold change) [3]: 3.0188 |
| DOMAIN_19597 (protein, listed as Monodelphis domestica) AQVLVTFQDVAVDFTQEEWRLLDPGQKELYKEVMLENVQNVLSLGLPVPREDWFFHFHEGGDPWMLEGKGPSISRLDEERH | 3.5081 | – |
| DOMAIN_19921 (protein, listed as Callorhinus ursinus) SHGPLSFEDVAIAFTKEEWQQLDPAQRTLYRDVMLENFSHLVSLGHPVSKPDIISKLEQGEEPWIIKRHISDWICPERETR | 2.0083 | – |
| DOMAIN_19786 (protein, Pan troglodytes) FEELVTFEDVLVDFSPEELSSLSAAQRNLYREVMLENYRNLVSLGHQFSKPDVISRLEEEESHAMETDSRHTVICPGESHD | 2.9155 | – |
| DOMAIN_19580 (protein, listed as Monodelphis domestica) MELVTFEDVAVYFTRKEWGWLDPAQRDLYRDVMLENYGNFVSMGLPFSKPDVISQLEQGEESWVEDLQECEEGEFSPVVHS | 3.5716 | – |
| DOMAIN_19967 (protein, listed as Tursiops truncatus) QAEVTFEDVAVLLSREEWGRLGPVQKGLYRDVMLETYRNLVSLGAGPAGPKPEVITQLERGDEPWVPDVQGRERPTIDGSA | 2.9548 | – |
| DOMAIN_19944 (protein, listed as Zalophus californianus) SQEPVTFEDVAVYFTQNQWASLDPMQRALYLEVMLENYANITSLAALPFPKPDLILQLEQGGAPWGLDPWTPLEGEALGGV | 3.8559 | – |
